From the RNAGym collection of RNA variant scans (doi:10.1093/nar/gkz1192)
The source gives no read counts; variants with many changes may rest on few reads.

B1: CPEB3 Ribozyme (parent)
chain: UAACAGGGGGCCACAGCAGAAGCGUUCACGUCGCAGCCCCUGUCAGAUUCUGGUGAAUCUGCGAAUUCUGCUGUAUAUCUC

Variants of: B1
Experiment: self-cleavage, relative activity (ratio to wild type); higher = more cleavage; in vitro, sequencing
Procedure, shortened: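 Barcoded CPEB3 ribozyme mutants, produced by rounds of error-prone PCR, self-cleaved while being transcribed with T7 RNA polymerase for 5 hours at 37°C and during a subsequent 15 min DNase I step before EDTA was added. Sequencing of template-switched cDNA on Illumina gave cleaved and total reads, and DNA sequencing assigned barcodes to variants. Each variant's relative activity is its cleaved/total read fraction divided by the unmutated ribozyme's fraction, averaged across three batches. A variant needed a minimum of 5 reads.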

Variant	self-cleavage
A21G A28U G30A U48C	0.06
A21G C23G U25C A28U	0.44
A21C U48C U66C	0.11
A21G A56U U60C U72A	0.08
A21G A35G U76C	1.07
A21G A57G A64G U74C U78C	0.42
A21G A45U U58C U60C U69A	0.15
A21G A28G G30A	0.43
A21C U41C U54C U67C	0.15
A21G A28G A64U	0.36
A21G A35U C62G U76C	0.14
A21G A35C U67G U69A	0.11
A21G A45G A64U U80C	0.12
A21G A45G U48C U80C	0.03
A21G A35G U58C	0.97
A21G A45U C68U	0.31
A21G A35G U66C G70A	1.08
A21G A28U U41A U49A	0.24
A21G A57G C62G U80A	0.1
A21G A35G A57G U67A A75G	0.62
A21C A56G U69A	0.14
A21C C37U C59U A65G	0.12
A21C U25C U69C	0.37
A21G A28U G30U U49C U54G U58A U66C	0.04

Variant	self-cleavage
A21G A57G U58C	0.28
A21G A57G A64G	0.39
A21G A35G U69A	0.52
A20U U72C U78C	0.26
A21G A28G G30A A75U	0.05
A21C U26C G33U A47U	0.05
A21G A35G U43C A47G A56G U66C A77U	0.9
A21G A28U G61A	0.3
A21G A57U U74A	0.81
A21G A45U A56G	0.29
A21G A47G U51C	0.24
A21G A28G C62U	0.08
A21G A35G A45G U74C U80A	1.23
A21G A47U A65G	0.16
A21G A75U U80A	0.78
A21G A64U U78C	0.2
A21G A35G C40A	0.34
A21G A35G U54C	1.34
A21C U25C U31A U58G	0.18
A21G A45G A47U U51C U80A	0.41
A21G A28G A65G	0.12
A21C U26C A28U U54C A75G	0.04
A21G A35G A77U	1.26
A21G A35G U41C U48C U74A	1.12

Variant	self-cleavage
A21G A45G A57G U69C	0.11
A21G A47G U51C A65U C68G G73A C79A	0.05
A21G A35U A45G A56C	0.05
A21G A75U U76A A77G U78A	0.88
A21G A35U G63U U66C U80G	0.55
A21G A57G U69C U80C	0.17
A21C U43C U48A A77U	0.16
A20U U74A U80C	0.59
A21G A35G C37A	0.64
A21G C23U U26C C40U A65G A77G	0.07
A21G A65G A75U	0.22
A21G A65G A75C	0.24
A21G A45G U51C G52A U54A	0.33
A21G A56G U69C	0.11
A21G A28U A45G	0.12
A21G A28G A45U	0.18
A21G A35G U41C U67C	0.17
A21G A45C U72A	0.1
A21G A56U U66C	0.67
A21C U72A C81G	0.12
A21G A47G G63A U69C	0.1
A21G A57G U74C	1.07
A21G A57C G70A C71G U74C U80C	0.11
A21G A28G U51A U78A	0.29

Variant	self-cleavage
A21G A28U U31A U48C	0.12
A20U U60C U67C	0.05
A21G A45U U69C	0.28
A21G A45U A56G A75U	0.18
A21G A45G U67C	0.11
A21G A65G U69A	0.09
A21C U31C A35U U80C	0.24
A21C A28U G33U A47U	0.05
A21G A28U A35G U49C U54C	0.24
A21C U51A U78A	0.16
A21G A47G A56G	0.2
A21C A45U A56G	0.21
A20U U60C C79G	0.1
A21G A28G A45U U51A	0.25
A21G A47G U49A	0.08
A21G A47G U49C	0.38
A21G A28G U58A A75G	0.13
A21G A56G A64U	0.13
A21G A35U U49C U51C A64U	0.12
A21G C23A A35G U41G	0.28
A21G A28U U43C A56G G63A A65G	0.09
A21C A56G U67C	0.07
A21G A28G U31A A47G U60C U69C A77C	0
A21G A35G U43C	0.89

Variant	self-cleavage
A21G A64U U76A	0.16
A21G A56G U69A U80A	0.13
A21G A35U U41G U51A U60G	0.05
A21G A35G U69A A77U	1.01
A21G A45U A57G U69A G73A	0.28
A21G A65G U72A	0.11
A21G A65G U72G	0.14
A21C A28C U31A	0.07
A21G A47G U48C U49A C59A A65G U80C	0.08
A21C U54C U66A U69C U80A	0.12
A21G A28G U43C U69G U76A	0.18
A21G A35G A57U	0.76
A21G A28U U67C U78C	0.2
A21C A28C A35G	0.22
A21G A56G U80C	0.47
A21G A35U G61A	0.13
A20U U67C A77G	0.12
A21G A47G U58C U66C	1.12
A21C A35G A57G	0.12
A21C U41A U48C	0.1
A21G A35G U41A G53U U69C	0.09
A21G A65U G73U	0.22
A21G A35G U41C U67C A77G	0.16
A21G A47G U48C C50G A57G	0.14

Variant	self-cleavage
A21G A57G U76A	0.59
A21G A35G A65G	0.6
A21G A47G U48C U49A U60C	0.34
A20U U69C U78C	0.12
A20U U69A U72C U78C	0.42
A21G A35U U41C A64G U69A	0.13
A21G A28U U72C	0.36
A21G A45U U48C U51C U60G A75G U78C	0.06
A21G A28G U69C	0.11
A21G A28G U51C U80A	0.36
A21G A45C G53U	0.17
A21G A35G U43C G52U	1.03
A21G C23U C40G	0.25
A21G A28U U41C A64G U78C U80C	0.08
A21G A28U U60A U69A	0.12
A21C A28G U43C	0.16
A21G A56G U58C U76A	0.29
A21G A28G A45G A77U	0.28
A21G A28G U41C U69A U72C	0.06
A21G C23U C39G	0.21
A21G A28U C68A U80C	0.17
A21G A35G U43A U48C U74G	0.67
A21G A28G U41C A45G U49C U72C	0.2
A21G A28G U41C U69C U80A	0.12

Variant	self-cleavage
A21G A47G U67C	0.1
A21G A28U U51A U69C	0.18
A21G A45U U54A U60C	0.25
A21G A35U C59A U78A	0.06
A21G A28G A35G U41A A65G A75U	0.28
A20U U69C U72A	0.29
A21G A56G U67C	0.26
A21G A35G A64G	1.02
A21C U49C U72C	0.12
A21G A28G A56U U72A	0.08
A21G A28U A45C U54C U60C	0.06
A21G A35G U49A U78C	1
A21G A56G G63A A75U	0.3
A21G A28G U49G A65G U67C C71U U74A	0.02
A21G A28U A47G	0.36
A21G A28U G33U U67A	0.03
A21C A35U U48C	0.05
A21G A35G U41A C81U	0.16
A21G A47G G55U U80A	0.74
A21G A28G U67C U72G	0.08
A21G A35U U76C A77G	0.22
A21G A28G U54G U60A	0.18
A21G A45G A56G	0.32
